Here are results for 57 sequences from the supplement of paper PMC11417369.

± gives the standard deviation of the averaged measurements. This is one part of the list.

The subject of this assay is PfAP2-I AP2 domain 3 (GST-tagged). Kind of assay: gcPBM binding intensity (ln(normalized median fluorescence intensity)); higher = stronger DNA binding. In a few lines:
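GST-fused DNA-binding domains of P. falciparum, expressed in E. coli, were applied at about 25 μg on average for 1 h to an Agilent 4 × 180k array of primer-extended double-stranded 36-bp intergenic genomic probes and negative controls. Binding intensity is the highest Masliner-normalised natural-log median intensity across replicate spots of either probe orientation, measured with Alexa488 anti-GST antibody and a 488 nm scan.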
On to “CATAATTATGCAATTGCACACAACTATCATTTTTTT [CACACA_site2997]”, for which the “gcPBM binding intensity (ln)” value was 9.95 ± 0.73.

“TTGTATCATATATTATGTACATATTTATTTATTATC [XGTACX_site7723]”: the “gcPBM binding intensity (ln)” value was determined as 7.6 ± 0.42.

On to “CCCATGTAATATTAAACACACACTCATATAACACAA [CACACA_site7906]”, for which the “gcPBM binding intensity (ln)” value was found to be 8.08 ± 0.59.

Take ATATTATATCTAATCGTGCACAACTGTACATTTGTC: the “gcPBM binding intensity (ln)” value came to 10.5 ± 0.12.

For “ATATTTAAATATATTTATATATATAAAAAAAAATAT [GTGCAC_negctrl_site312]”, the “gcPBM binding intensity (ln)” value was 7.87 ± 0.52.

As for “CAAAATATTTAAAAAAGTACTTAAAATAAATTCAAA [XGTACX_site6866]”, the “gcPBM binding intensity (ln)” value was 7.63 ± 0.45.

For “AATATAAATAAAAACACACACACACGGATATTTATA [CACACA_site7134]”, the “gcPBM binding intensity (ln)” value turned out to be 8.12 ± 0.53.

For the sequence “CACACAACTATCAAGGTGCTAAAATGAAATAATATA [GTGCAC_site9871]”, the “gcPBM binding intensity (ln)” value came out at 9.46 ± 0.19.

Turning to “AAGGTGGGAAAAAATAGTACACAACAAAAATGTATG [XGTACX_site8741]”, the “gcPBM binding intensity (ln)” value came out at 8.38 ± 0.18.

Turning to “ACATATAAACTGTATACACACAAATATTGCATATAT [CACACA_site6804]”, the “gcPBM binding intensity (ln)” value was 8.55 ± 0.45.

Turning to “ATATATCTATATGTGTGTACATATAAGTATTTATAT [XGTACX_site5333]”, the “gcPBM binding intensity (ln)” value was 7.86 ± 0.26.

In the case of “TACATTCTAAATATTACACACTTTATAAAATAATAA [CACACA_site4069]”, the “gcPBM binding intensity (ln)” value turned out to be 7.72 ± 0.38.

Take “ATATATATAAATATATGTACTAATATATACATATAT [XGTACX_site2289]”: the “gcPBM binding intensity (ln)” value came out at 8.04 ± 0.54.

For “AGAAAAGAGAAATGGGCACACACACCCATATTATAT [CACACA_site8433]”, the “gcPBM binding intensity (ln)” value was determined as 7.72 ± 0.59.

Take “ATATTTCTGTGTGGATGTACATTATTAGCAGGCTTT [XGTACX_site6496]”: the “gcPBM binding intensity (ln)” value was 8.12 ± 0.73.

Take “AAAATATATACACAAACATGCATATAATAAATAAAT [TGCATGCA_site711]”: the “gcPBM binding intensity (ln)” value is 7.98 ± 0.83.

In the case of “CAAAATAATAATAAAAGTACTAACATATTTATGAAA [XGTACX_site6078]”, the “gcPBM binding intensity (ln)” value was 7.79 ± 0.57.

Take “TTCTTTTTATTTATATTTTCCCCTCTCTATAGCTAT [XGTACX_negctrl_site102]”: the “gcPBM binding intensity (ln)” value worked out at 7.95 ± 0.65.

Consider “ATAATTCAAAAAAACACACAAATTACAAAATAAACT [CACACA_site6264]”, for which the “gcPBM binding intensity (ln)” value was found to be 7.88 ± 0.58.

For the sequence “GATAATTTTTTTCTCACACACAAATATTTTAATCAT [CACACA_site3666]”, the “gcPBM binding intensity (ln)” value worked out at 7.91 ± 0.61.

On to “AAATATATTATATCATATATTAAAGCATATATTAAA [CACACA_negctrl_site1624]”, for which the “gcPBM binding intensity (ln)” value turned out to be 7.5 ± 0.39.

AGGTAAAAATGGTAAGTGCATTAATGATAAAAAATG: the “gcPBM binding intensity (ln)” value came to 11.1 ± 0.18.

For “GAATATTCACATACTTGTACATATATATATATATAT [XGTACX_site7302]”, the “gcPBM binding intensity (ln)” value was determined as 9.36 ± 0.37.

As to “AAAAAAAAAAAACACACACACACACCGACACATACA [CACACA_site5576]”, the “gcPBM binding intensity (ln)” value was 8.15 ± 0.23.

On to “ATATTTTGGGGACTTTTTAAAAAAGAAGTATTAAAA [CACACA_negctrl_site1228]”, for which the “gcPBM binding intensity (ln)” value came out at 8.19 ± 0.27.

Turning to “TGGCAAAATAGGCACACACACATATACCTATAGATT [CACACA_site7168]”, the “gcPBM binding intensity (ln)” value worked out at 8.02 ± 0.4.

With “GTAAATATATAAACATGTACATATATAAATATATAA [XGTACX_site7262]”, the “gcPBM binding intensity (ln)” value came out at 7.84 ± 0.23.

As for “TATAAGAATAAAAAGGGTACATAAAATAATAATATA [XGTACX_site2355]”, the “gcPBM binding intensity (ln)” value stood at 7.93 ± 0.51.

In the case of “GTTTACATAGATAACTGTACGCAATGATATTAGACA [XGTACX_site1320]”, the “gcPBM binding intensity (ln)” value came out at 8.13 ± 0.028.

As to “CAAAAAAAATAAAACACACACACAAAAAAATAAAAA [CACACA_site466]”, the “gcPBM binding intensity (ln)” value came to 7.84 ± 0.59.

With “TAATAATAGTACTGACATCGAAATATTATTAAAAAT [CACACA_negctrl_site255]”, the “gcPBM binding intensity (ln)” value is 7.71 ± 0.29.

As to “TTTATATGATATATTACACACAAAAAAAAAAAAAAA [CACACA_site3549]”, the “gcPBM binding intensity (ln)” value was found to be 7.99 ± 0.73.

Regarding “TAGATACTTGTCATGGGTACATATCGTACCTTTTGG [XGTACX_site6781]”, the “gcPBM binding intensity (ln)” value is 7.5 ± 0.37.

As for “CTCTTCTATATATAAGCATGCATTCATAATAATTTA [TGCATGCA_site679]”, the “gcPBM binding intensity (ln)” value was 8.04 ± 0.77.

As for “ATTTCATTTTATAAGTGTACAATAAAAAAAAAAAAA [XGTACX_site8677]”, the “gcPBM binding intensity (ln)” value worked out at 8.31 ± 0.57.

Turning to “GTTTACATTAAAAATTGTACTCTGTATGAATAATAT [XGTACX_site80]”, the “gcPBM binding intensity (ln)” value is 7.64 ± 0.47.

On to “CTTAAAAAAACCTTAACACACATAAACTCTAATTTA [CACACA_site7430]”, for which the “gcPBM binding intensity (ln)” value came out at 7.46 ± 0.39.

For the sequence “ATATAAACAGAAAATAGTACTTTATATTGAAAAAAA [XGTACX_site7183]”, the “gcPBM binding intensity (ln)” value stood at 7.72 ± 0.61.

For “GATGATACAAAGTAATGTACATAAATACACATATTG [XGTACX_site3177]”, the “gcPBM binding intensity (ln)” value is 7.79 ± 0.49.

Regarding “AAATTTGATATAAAAAGTACAAAATGTTCCTCAGCT [XGTACX_site809]”, the “gcPBM binding intensity (ln)” value was 7.61 ± 0.67.

As for “CATTATGTCGTAAATACACACATACCTATACATACA [CACACA_site6763]”, the “gcPBM binding intensity (ln)” value was determined as 7.96 ± 0.61.

With “AATATATAGCTAAAAACACACAAATATATACGCATA [CACACA_site3608]”, the “gcPBM binding intensity (ln)” value was 7.67 ± 0.49.

Regarding “CCATAAGATATATGTAGTACATATTATATATATATA [XGTACX_site2104]”, the “gcPBM binding intensity (ln)” value came to 9.12 ± 0.014.

In the case of “TATACACATATATAAACACACAAAAAAAAAAAAAAA [CACACA_site7041]”, the “gcPBM binding intensity (ln)” value came out at 7.99 ± 0.54.

As to “TTAAAATTAAAAATGCGTACACATATACATAAAAAA [XGTACX_site1915]”, the “gcPBM binding intensity (ln)” value worked out at 8.21 ± 0.4.

Regarding “ATTAATTTTAATAAAGGTACACGTAGTTTTTTATTA [XGTACX_site7868]”, the “gcPBM binding intensity (ln)” value is 7.53 ± 0.4.

“AACAAAACCTTATATGTACACACATATACATCACAC [CACACA_site9037]”: the “gcPBM binding intensity (ln)” value worked out at 8.32 ± 0.24.

For the sequence “TATATATATATATATTGTACTGAACGTTTTTTTTTG [XGTACX_site8060]”, the “gcPBM binding intensity (ln)” value stood at 9.38 ± 0.18.

As for “AATTTATAATTATAGAGTACATATTTTTAATATATA [XGTACX_site2566]”, the “gcPBM binding intensity (ln)” value is 7.43 ± 0.43.

Consider “ACAGCTACCAGATACTGTACTTTTCTCCAGACTGCA [XGTACX_site2541]”, for which the “gcPBM binding intensity (ln)” value came to 7.94 ± 0.61.

With “ATGTGATATAAGTACACACACATATGTATTTATAAC [CACACA_site6942]”, the “gcPBM binding intensity (ln)” value worked out at 8.2 ± 0.16.

With “ATATACATAATCTTCTTGCACTTTTTTTTTTTTTTT [GTGCAC_site9410]”, the “gcPBM binding intensity (ln)” value was found to be 9.47 ± 0.13.

For “TATATTTTGTTCTTTCCACACACAAATACATATATT [CACACA_site9348]”, the “gcPBM binding intensity (ln)” value was 8.12 ± 0.72.

For “ATATACACTTAATTTTTTATAAAAAAAAATTTATAT [CACACA_negctrl_site498]”, the “gcPBM binding intensity (ln)” value stood at 7.66 ± 0.43.

Regarding “GTAATAATTTTTTGTAGTACACAAAAATTCATATTT [XGTACX_site2699]”, the “gcPBM binding intensity (ln)” value was determined as 8.27 ± 0.23.

Consider “TGCATATACGCAAGCACACATATATATATATATATA [CACACA_site1069]”, for which the “gcPBM binding intensity (ln)” value worked out at 9.52 ± 0.48.

Consider “TTTTGATTTCCTATTGCACACTTTTTTTAAGTTTAT [CACACA_site1056]”, for which the “gcPBM binding intensity (ln)” value was 10.18 ± 0.078.
